Laboratory results from PubChem BioAssay AID889 (National Center for Advancing Translational Sciences (NCATS), 2007).
Several values for one entry are separate records, joined by “and”; a condition that tells them apart may be missing. Identical values can stand only once. Among all 75,000 compounds or so, about 15 (0.02%) were called active. The inconclusive results got no clear call from the source; some entries with a clear call stand among them for comparison. The call rests on the fitted dose curve; in most records, active means well fitted inhibition curve with a large enough effect in the main read-out, with a control signal flat (not every such curve was filed as active); inconclusive means small, poorly fitted or top-dose-only effect, or a change in a side signal; inactive means flat fitted curve, though single readings scatter. A potency beside an inconclusive call is a rough fit, not a confirmed value. “Side channel” marks fits to a control or component signal instead of the main read-out.

target: Caspase-7 (Homo sapiens) (UniProt P55210); test: qHTS Assay for Allosteric/Competitive Inhibitors of Caspase-7; details: recombinant caspase-7, Ac-DEVD-AFC fluorescence rate; activity change, negative = inhibition: at 57.5 µM (top of the series) unless noted; on activity change, negative = inhibition: % of control where 0% means no effect
Sequence of UniProt P55210 (P55210 whole entry, looked up): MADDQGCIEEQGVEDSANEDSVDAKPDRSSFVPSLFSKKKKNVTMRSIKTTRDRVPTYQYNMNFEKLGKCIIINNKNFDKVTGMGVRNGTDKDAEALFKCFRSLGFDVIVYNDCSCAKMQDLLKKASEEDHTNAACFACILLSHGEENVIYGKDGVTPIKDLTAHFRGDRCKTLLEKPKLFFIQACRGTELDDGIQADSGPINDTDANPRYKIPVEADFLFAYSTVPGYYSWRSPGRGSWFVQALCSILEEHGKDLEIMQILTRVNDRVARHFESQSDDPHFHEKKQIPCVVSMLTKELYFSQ
Potency means the concentration at half of the fitted maximal effect; tags describe the fitted curve by direction and shape or compound fluorescence and quenching.

Compound	activity change, negative = inhibition	Potency
c1ccc2c(NCCN3CCOCC3)nc(-c3ccc4c(c3)OCO4)nc2c1	inactive: -22%	–
COc1ccc(-c2nc3cnc(N4CCNCC4)nc3n(-c3ccc(OC)cc3)c2=O)cc1	–	inconclusive: 12.6 µM [fluorescent, side channel, partial curve]
O=C(CSc1nc2ccccc2o1)Nc1nc2ccccc2s1	inactive: -0.184%	–
CCc1ccc(N/C(SC)=C(/C#N)C(N)=O)cc1	inactive: -0.825%	–
Cc1ccc([C@@H](O)c2cnc(C)n2Cc2ccccc2)cc1	inactive: 1.38% [at 11.5 µM]	–
COc1ccc(-c2csc(NCc3ccco3)n2)cc1	inactive: -1.58%	–
CC(=C1C2C=CC1C1C(=O)NC(=O)C21)c1ccccc1 (stereo unspecified)	–	inconclusive: 15.8 µM [inhibitor, partial curve]
COc1ccccc1N1CCN(CCCCNS(=O)(=O)c2cccc3c(N(C)C)cccc23)CC1	inactive: -12.6%	–
Cc1cc2nc3c(=O)[nH]c(=O)nc-3n(CC(O)C(O)C(O)CO)c2cc1C (stereo unspecified)	–	inconclusive: 10 µM [fluorescent, side channel, partial curve] and inconclusive: 15.8 µM [fluorescent, side channel, partial curve]
COc1ccc(-c2nc3cnc(Nc4cccc(OC)c4)nc3n(Cc3cccs3)c2=O)cc1	–	inconclusive: 2.51 µM [fluorescent, full curve]
CC(C)C(c1nnnn1Cc1ccccc1)N(CCCO)Cc1cc2cc3c(cc2[nH]c1=O)OCO3 (stereo unspecified)	–	inconclusive: 31.6 µM [fluorescent, single point]
CC(=O)Oc1cc2oc(=O)cc(C)c2cc1OC(C)=O	–	inconclusive: 12.6 µM [fluorescent, side channel, partial curve]
CCNc1ccc2c(Cl)cc(=O)oc2c1	–	inconclusive: 15.8 µM [fluorescent, side channel, partial curve]
O=c1cc(-c2ccc(O)cc2)oc2cccc(O)c12	inactive: -1.59%	–
Cc1noc(C)c1-c1nc(NCc2cccnc2)c2ccccc2n1	inactive: -0.0645%	–
CCOC(=O)CNc1c(-c2ccc(F)cc2)nc2cnccn12	–	inconclusive: 15.8 µM [fluorescent, side channel, partial curve]
COC(=O)C1=CN(C2CC2)C=C(C(=O)OC)C1c1ccc(C(=O)OC)cc1	–	inconclusive: 10 µM [fluorescent, side channel, partial curve]
O=C(C1CC1c1ccccc1)N1CCN(c2cccc(Cl)c2)CC1 (stereo unspecified)	inactive: -2.25%	–
CNc1nc(-c2ccc(Cl)cc2)cs1	inactive: -1.18%	–
O=C(O)c1ccc(Cl)c2c1C1C=CCC1C(c1ccccn1)N2 (stereo unspecified)	–	inconclusive: 25.1 µM [inhibitor, single point]
CCOc1ccc(/C=C/C(=O)c2cccs2)cc1	–	inconclusive: 31.6 µM [fluorescent, partial curve]
CC(C)C(=O)Nc1ccc(-c2nc3cccnc3o2)cc1	inactive: 0.133%	–
Cc1ccc(C2C(C#N)=C(N)Oc3n[nH]c(-c4cccs4)c32)s1 (stereo unspecified)	inactive: -3.66%	–
CCNc1ncc2nc(C)c(=O)n(CCOC)c2n1	–	inconclusive: 15.8 µM [fluorescent, side channel, partial curve]

Compound	activity change, negative = inhibition	Potency
COc1ccc(Oc2ncc3nc(-c4cccs4)c(=O)n(-c4ccccc4)c3n2)cc1	–	inconclusive: 3.98 µM [fluorescent, side channel, full curve]
COCCn1c(=O)c(C)nc2cnc(N3CCNCC3)nc21	–	inconclusive: 25.1 µM [fluorescent, partial curve]
Cc1nn2cc(-c3ccc(-c4ccccc4)cc3)nc2s1	inactive: -0.997%	–
CCCCn1c(SCC(=O)Nc2ccc(OC)cc2)nc2ccc(N3CCOCC3)cc2c1=O	–	inconclusive: 25.1 µM [inhibitor, single point]
CCCCC(=O)N(c1ccc(OCC)cc1)C1C=CS(=O)(=O)C1 (stereo unspecified)	inactive: 0.913%	–
CCC(=O)Nc1ccc2nc(C)n(CC(=O)Nc3ccccc3)c(=O)c2c1	inactive: -2.49%	–
COC(=O)C1=C(C)N(Cc2ccccc2)C2=C3C(=O)OCCC3[C@@](O)(C(=O)OC)C(=O)N2C1c1ccccc1 (stereo partly specified)	inactive: -0.359% [at 11.5 µM]	–
CN(C)c1ncc2nc(-c3ccc(F)cc3)c(=O)n(-c3ccccc3)c2n1	–	inconclusive: 2.51 µM [fluorescent, full curve]
C=C(C)COc1ccc(-c2nc(N)ncc2Oc2ccccc2OC)c(O)c1	–	inconclusive: 31.6 µM [inhibitor, single point]
CC1(C)CC2CC(C)(CN2S(=O)(=O)c2ccc(N)cc2)C1 (stereo unspecified)	inactive: 2.26%	–
Cc1nc(SCC(=O)Nc2ccc3c(c2)OCCO3)c2oc3ccccc3c2n1	inactive: -0.585%	–
Cc1cc(C(=O)COc2cccc3cccnc23)c(C)n1C	–	inconclusive: 12.6 µM [fluorescent, partial curve]
O=c1c2cc(N3CCOCC3)ccc2[nH]c(=S)n1CCCN1CCCC1	–	inconclusive: 25.1 µM [fluorescent, partial curve]
Cc1ccc([N+](=O)[O-])cc1S(=O)(=O)N(C)C	–	inactive
Cn1c(=O)c(-c2cccs2)nc2cnc(N3CCNCC3)nc21	–	inconclusive: 3.16 µM [fluorescent, side channel, partial curve]
Cc1ccccc1Cc1c(C)nc2nc(SCC(=O)NCc3ccco3)nn2c1C	inactive: -2.92%	–
O=C(Nc1cccc2c1CCCC2)c1ccc(Br)o1	inactive: -5.33%	–
O=c1c(O)c(-c2ccc(O)cc2O)oc2cc(O)cc(O)c12	–	inconclusive: 15.8 µM [inhibitor, full curve]
CCNc1ncc2nc(-c3ccccc3)c(=O)n(Cc3cccc(OC)c3)c2n1	–	inconclusive: 12.6 µM [fluorescent, side channel, partial curve]
Nc1nc(CSc2nc3ccccc3s2)nc(N2CCCCC2)n1	inactive: -4.61%	–
COc1cccc(Cn2c(=O)cnc3cnc(Nc4ccccc4)nc32)c1	–	inconclusive: 31.6 µM [inhibitor, single point]
CCOC(=O)CSc1nnc(-c2ccco2)n1-c1ccccc1	inactive: -1.97%	–
CCC(C)(C(=O)NC1CCCC1)N(Cc1cccs1)C(=O)Cc1cccs1 (stereo unspecified)	inactive: -1.6%	–
O=c1c(O)c(-c2ccccc2)oc2cc(O)ccc12	–	inconclusive: 15.8 µM [fluorescent, partial curve]

Compound	activity change, negative = inhibition	Potency
O=C(c1cc(-c2cccc(O)c2)on1)N1CCCCC1	inactive: -0.8%	–
O=C(Cn1c(CN2CCCCC2)nc2ccccc2c1=O)NC1CCCCC1	inactive: 1.02%	–
COc1ccc2[nH]c(=O)c(CN(Cc3ccc(C)cc3)Cc3nnnn3CC3CCCO3)cc2c1 (stereo unspecified)	–	inconclusive: 12.6 µM [fluorescent, partial curve]
CCOc1ccc(C2C(C(=O)OC)=CN(CCOC)C=C2C(=O)OC)cc1	–	inconclusive: 15.8 µM [fluorescent, side channel, partial curve]
O=C(c1cc(C(F)(F)F)cc(C(F)(F)F)c1)N1CCC[C@@]2(CCN(Cc3nccs3)C2)C1	–	inconclusive: 20 µM [inhibitor, single point]
COC(=O)c1cnn2c(C(F)(F)F)cc(-c3ccco3)nc12	–	inconclusive: 25.1 µM [fluorescent, partial curve]
CCNc1ncc2nc(-c3cn(C)c4ccccc34)c(=O)n(-c3ccc(OC)cc3)c2n1	–	inconclusive: 2 µM [fluorescent, full curve]
COC(=O)C1C(=O)CC(C)(O)C(C(=O)OC)C1/C=C/c1ccccc1 (stereo unspecified)	inactive: -3.21%	–
Cn1ccnc1-c1nc2ccccc2[nH]c1=O	–	inconclusive: 25.1 µM [fluorescent, side channel, single point]
CCOC(=O)C1=C(C)NC(=O)NC1c1ccc(OC(C)C(=O)O)c(OC)c1 (stereo unspecified)	–	inconclusive: 15.8 µM [fluorescent, partial curve]
CCNc1ncc2nc(-c3cc(F)cc(F)c3)c(=O)n(CCc3ccccc3)c2n1	–	inconclusive: 2 µM [fluorescent, full curve]
Cn1c(=O)c2[nH]c(CS(=O)(=O)Cc3nc4c([nH]3)c(=O)n(C)c(=O)n4C)nc2n(C)c1=O	–	inconclusive: 3.98 µM [fluorescent, partial curve]
Nc1nc(-c2ccco2)c(-c2ccco2)s1	–	inconclusive: 31.6 µM [inhibitor, single point]
Cc1cccc(CNc2ccnc(-c3cccc(C#N)c3)n2)c1	inactive: -9.31%	–
CS(=O)(=O)NC1CCN(Cc2ccccc2)CC1	inactive: 0.317%	–
COc1cccc(Cn2c(=O)c(-c3cc(F)cc(F)c3)nc3cnc(N(C)C)nc32)c1	–	inconclusive: 3.16 µM [fluorescent, full curve]
CC1(c2ccccn2)Nc2ccccc2-c2nc3ccccc3n21 (stereo unspecified)	–	inconclusive: 31.6 µM [inhibitor, single point]
CCOC(=O)CNC(=O)c1sc2nc(C)cc(C)c2c1N	–	inconclusive: 25.1 µM [inhibitor, single point]
O=C(O)c1c(Br)c(Br)c(Br)c(Br)c1C1c2ccc(O)cc2Oc2cc(O)ccc21	–	active: 3.98 µM
O=C(c1cccn2c(=O)c3cc(Cl)ccc3nc12)N1CCOCC1	–	inconclusive: 15.8 µM [fluorescent, partial curve]
Nc1c(C(=O)NCC2CCCO2)c2nc3ccccc3nc2n1-c1ccccc1 (stereo unspecified)	–	inconclusive: 12.6 µM [fluorescent, side channel, partial curve]
COc1ccc(-n2c(=O)c(-c3cccs3)nc3cnc(Oc4ccccc4)nc32)cc1	–	inconclusive: 3.16 µM [fluorescent, full curve]
CCC(C)(C)n1nnnc1CN(Cc1cc2cc(OC)c(OC)cc2[nH]c1=O)C1CCCC1	–	inconclusive: 7.94 µM [fluorescent, side channel, partial curve]
